{
  "source": "PubChem BioAssay AID463173",
  "about": "(ICCB-Longwood Screening Facility, Harvard Medical School, 2010)",
  "note": "The campaign covered roughly 52,000 compounds. About 4,300 (8.3%) were called active. Cut-off read from the data, not from the text of the source: active = survival mostly below about 52% (no sharp cut-off); inactive = mostly above about 56%. The list shows a part of the results.",
  "data": [
    {"test_system": "DeltatarO mutant", "test": "growth inhibition of S. aureus wild type versus tarO mutant, primary screen, teichoic acid synthesis inhibitors, RN4220, OD600 (AID 463173)", "conditions": "OD600, 18 h, active compounds read low, screened at 18.75 µg/mL (by protocol)", "values": [
      {"smiles": "Cc1cccc(-c2nc3ccccc3o2)c1", "survival": "inactive: 79%"},
      {"smiles": "COc1ccccc1-c1c(C)nn2c(N3CCN(c4cccc(Cl)c4)CC3)cc(C)nc12", "survival": "inactive: 58%"},
      {"smiles": "Cc1c(NS(=O)(=O)c2cccc(C(=O)O)c2)c(=O)n(-c2ccccc2)n1C", "survival": "inactive: 67%"},
      {"smiles": "COc1ccc(OC)c(NC(=O)c2cc3c(s2)-c2ccccc2SC3)c1", "survival": "inactive: 65%"},
      {"smiles": "O=C1NCCCC1C(=O)Nc1ccncc1", "note": "(stereo not given)", "survival": "inactive: 113%"},
      {"smiles": "O=C(N=C1SCC(=O)N1c1ccccc1)c1ccco1", "survival": "inactive: 62%"},
      {"smiles": "CCC(=O)N1c2ccccc2CC1C(=O)NCc1ccccc1C", "note": "(stereo not given)", "survival": "inactive: 125%"},
      {"smiles": "O=C(CSc1nnc(CNC(=O)c2c(F)cccc2Cl)o1)Nc1ccccc1F", "survival": "inactive: 107%"},
      {"smiles": "COc1ccc(CNn2cnnc2)c(O)c1", "survival": "inactive: 97%"},
      {"smiles": "Cc1coc2c1c(C)cc1oc(=O)cc(C)c12", "survival": "inactive: 65%"},
      {"smiles": "CC(C)OCCCNC(=O)c1ccc2c(=O)n(CCc3ccccc3)c(=O)[nH]c2c1", "survival": "inactive: 78%"},
      {"smiles": "Cc1oc(-c2cccc(Cl)c2)nc1CN1CCCC(C(=O)NCc2ccc(F)cc2)C1", "note": "(stereo not given)", "survival": "inactive: 52%"},
      {"smiles": "COc1ccc(-c2nnc(SCC(=O)Oc3c(C)cccc3C)o2)cc1OC", "survival": "inactive: 102%"},
      {"smiles": "CCCCN(C)C(=O)C(Cc1ccccc1)NS(=O)(=O)c1ccc2c(c1)c(=O)n(C)c(=O)n2C", "note": "(stereo not given)", "survival": "inactive: 110%"},
      {"smiles": "C=CCc1cccc2cc(C(=O)Nc3cccc(Cl)c3)c(=O)oc12", "survival": "inactive: 79%"},
      {"smiles": "Cc1cccc(C(=O)NCCc2sc(-c3ccccc3)nc2C)c1", "survival": "inactive: 79%"},
      {"smiles": "CC(=O)c1c(C)oc2ccc(N(C(=O)Oc3ccccc3)S(=O)(=O)c3ccc(C(C)(C)C)cc3)cc12", "survival": "inactive: 128%"},
      {"smiles": "CC(Sc1nnc2c(n1)[nH]c1ccccc12)C(=O)NC(C)(C)C", "note": "(stereo not given)", "survival": "inactive: 64%"},
      {"smiles": "CC(=O)Oc1cn(C(C)=O)c2ccccc12", "survival": "inactive: 110%"},
      {"smiles": "COc1ccc(C)cc1NC(=O)CN(c1cc(C(F)(F)F)ccc1Cl)S(C)(=O)=O", "survival": "inactive: 60%"},
      {"smiles": "CCc1cccc(C)c1NC(=O)c1cc(C)nc2c1c(C)nn2-c1cccc(Cl)c1C", "survival": "inactive: 88%"},
      {"smiles": "O=C(COc1ccc(Cl)cc1Cl)NC1CCSC1=O", "note": "(stereo not given)", "survival": "inactive: 87%"},
      {"smiles": "COc1cc(NC(=O)c2cc(Cl)c(OC)c(Cl)c2)ccc1NC(=O)c1cc2ccccc2o1", "survival": "inactive: 82%"},
      {"smiles": "CN(C)C(=O)Cn1nc(-c2ccccc2)c2ccccc2c1=O", "survival": "inactive: 92%"},
      {"smiles": "CCC(C)NC(=O)c1ccc(-n2c(-c3ccccc3)cc3c2CCCC3)cc1", "note": "(stereo not given)", "survival": "inactive: 112%"},
      {"smiles": "COC(=O)c1cc(NC(=O)Cn2nc(C)n3cccc3c2=O)cc(C(=O)OC)c1", "survival": "inactive: 87%"},
      {"smiles": "Cc1ccccc1CNC(=O)c1ccc(-c2nc(CS(=O)(=O)c3ccccc3)c(C)o2)cc1", "survival": "inactive: 60%"},
      {"smiles": "CCOC(=O)C1=C(CS(=O)(=O)c2ccc(Br)cc2)NC(=O)NC1c1ccccc1", "note": "(stereo not given)", "survival": "inactive: 80%"},
      {"smiles": "CCc1nn2c(=O)c(S(=O)(=O)Nc3ccc(OC)c(Cl)c3)c(C)nc2s1", "survival": "inactive: 64%"},
      {"smiles": "Cc1ccc(CSc2nc3ccc(NC(=O)C(C)C)cc3s2)cc1", "survival": "inactive: 87%"},
      {"smiles": "O=C(NCC(c1cccnc1)N1CCN(Cc2ccccc2)CC1)C(=O)Nc1ccc(Cl)cc1", "note": "(stereo not given)", "survival": "inactive: 85%"},
      {"smiles": "COc1ccc(C(CC(=O)Nc2ccc(C)c(C)c2)N2Cc3ccccc3C2=O)cc1OC", "note": "(stereo not given)", "survival": "inactive: 80%"},
      {"smiles": "Cc1cc(OC(=O)c2cc(-c3ccc4c(c3)OCCO4)on2)ccc1Cl", "survival": "active: -1%"},
      {"smiles": "COc1ccc2c(c1)-c1nc(NC(=O)c3cc(Cl)ccc3OC)sc1CC2", "survival": "inactive: 69%"},
      {"smiles": "CN1c2ccccc2-c2nc(SCC(=O)Nc3ccccc3C(F)(F)F)ncc2S1(=O)=O", "survival": "inactive: 95%"},
      {"smiles": "COc1ccc(OC)c(NC(=O)c2c(NCc3ccc(C)o3)sc3c2CCC(C)C3)c1", "note": "(stereo not given)", "survival": "active: 52%"},
      {"smiles": "COc1ccc(C(=O)NCc2ccc3c(c2)CCN3C(=O)c2ccncc2)cc1", "survival": "inactive: 88%"},
      {"smiles": "Cc1ccc(CSCC(=O)N2CCN(c3ccc(F)cc3)CC2)cc1", "survival": "inactive: 70%"},
      {"smiles": "CC(C)c1ccc(S(=O)(=O)c2nnn3c2nc(NC2CCCC2)c2sccc23)cc1", "survival": "inactive: 65%"},
      {"smiles": "Cc1ccc2c(=O)cc(CSc3ccccc3)[nH]c2c1C", "survival": "inactive: 85%"},
      {"smiles": "Cc1nc(CC(=O)Nc2cccc(C)c2C)cs1", "survival": "active: 39%"},
      {"smiles": "CC(=O)c1cccc(S(=O)(=O)NCCc2csc3nc(-c4ccc(F)cc4)nn23)c1", "survival": "inactive: 88%"},
      {"smiles": "O=C1CCC(C2CCC(=O)N2)N1", "note": "(stereo not given)", "survival": "inactive: 104%"},
      {"smiles": "O=C(CSc1nc(-c2ccccc2)nc2c1CCCC2)c1ccc(F)cc1", "survival": "inactive: 83%"},
      {"smiles": "CCC(=O)N1c2ccc(S(=O)(=O)NCc3cccc(OC)c3)cc2CC1C", "note": "(stereo not given)", "survival": "inactive: 67%"},
      {"smiles": "Cc1ccc(S(=O)(=O)c2nc(-c3ccco3)oc2SC(C)c2ccccc2)cc1", "note": "(stereo not given)", "survival": "active: 45%"},
      {"smiles": "COc1cc(NC(=O)CCc2c(C)nc3nc(-c4cc(OC)cc(OC)c4)nn3c2C)cc(OC)c1", "survival": "inactive: 83%"},
      {"smiles": "CCCCN(CC)CCNC(=O)c1cc2c(-c3ccc(Cl)cc3)nn(C)c2s1", "survival": "inactive: 59%"},
      {"smiles": "Cc1ccc(NC(=O)Cn2cc(C#N)c3ccccc32)cc1", "survival": "inactive: 101%"},
      {"smiles": "O=C(CN1CCC(NC(=O)c2ccccc2)CC1)NCc1ccccc1F", "survival": "inactive: 89%"},
      {"smiles": "Cc1nc2ccccc2n1CC(O)COc1ccc(C(=O)O)cc1", "note": "(stereo not given)", "survival": "active: 46%"},
      {"smiles": "CCOC(=O)c1cc2occc2n1CC(=O)N1CCCc2ccccc21", "survival": "inactive: 101%"},
      {"smiles": "COCC(C)NC(=O)c1ccc2c(c1)OCO2", "note": "(stereo not given)", "survival": "inactive: 78%"},
      {"smiles": "COc1cccc(CNC(=O)c2ccc(Cn3c(SCc4ccccc4)nc4cccnc43)cc2)c1", "survival": "inactive: 74%"},
      {"smiles": "COc1ccccc1Nc1cc(C(=O)NCCCN(C)c2ccccc2)c2ccccc2n1", "survival": "inactive: 80%"},
      {"smiles": "COc1cc(Cl)ccc1Nc1ncc(C(=O)N2CCN(c3ccccc3OC)CC2)c2ccccc12", "survival": "inactive: 66%"},
      {"smiles": "COc1ccc(OC)c(-c2cc(C(=O)Nc3cccc(Cl)c3C)no2)c1", "survival": "active: 2%"},
      {"smiles": "COc1ccc(-n2nc(C(=O)N3CCN(c4ccccc4OC)CC3)c3c4ccccc4n(C)c3c2=O)cc1", "survival": "inactive: 92%"},
      {"smiles": "CCOC(=O)c1ccc(NC(=O)C(CC)Sc2nc3ncccc3[nH]2)cc1", "note": "(stereo not given)", "survival": "inactive: 74%"},
      {"smiles": "COc1ccc(N2CC(NC(=O)c3ccc(S(=O)(=O)N4CCCC4)cc3)CC2=O)cc1", "note": "(stereo not given)", "survival": "inactive: 112%"}
    ]}
  ]
}
